Measured values as given in US9290464B2 (priority 2010, dated 2016).

Test system: MPTP-induced mouse
Assay: Immunohistochemistry staining with antibody against tyrosine hydroxylase, neurons of substantia nigra, MPTP-induced mouse
Conditions: 1 mg/kg oral; compared with rasagiline group; FIG. 5
Method: C57BL/6 mice (n=94, 8-week-old; male) were used as an experimental model (substrain: C57BL/6NCrljBgi, ORIENT BIO INC.). 30 mg/kg of MPTP was administered to the mice via intraperitoneal injection once a day for 4 days. 4 days after the last day of administration, the mice were divided into three group, and an excipient (control), 1 mg/kg of CBI, and 1 mg/kg of rasagiline were respectively administered orally to the three groups once a day for 10 days. Next day after the last day of administration, a tail suspension test (TST) was performed on each group, and striatum and substantia nigra brain tissue were taken out from each group of mice, and thus the concentrations of dopamine and metabolic product thereof in striatum and the extent of a decrease in neurons in substantia nigra were measured.
A change in the expression of an antibody against tyrosine hydroxylase in striatum and substantia nigra according to the administration of the compounds described above was measured by immunohistochemistry staining. Each group of mice was anesthetized with sodium pentobarbital (50 mg/kg), the thorax of the mouse was opened, and 200 ml of 0.1 M PBS (pH 7.4) was perfused into the heart, thereby removing blood in blood vessels. […]

NC(=O)OCc1cc(-c2ccc(OCc3ccccc3)cc2)no1 [CBI, carbamic acid 3-(4-benzyloxy-phenyl)-isoxazole-5-yl methylester]
extent of a decrease in neurons in substantia nigra (tyrosine hydroxylase staining): the same extent of a decrease in neurons in substantia nigra
